Screen size: about 50,000 compounds; about 800 (1.6%) showed an effect of 50% or more. The list shows a part of the results.
Target: Bcl-2-like protein 10 (Homo sapiens) (UniProt Q9HD36)
Experiment: TR3 peptide-Bcl-B binding displacers, biochemical primary FP assay, phenotype converters (AID 1240);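 further: 0% = Bcl-B with tracer peptide and DMSO and 100% = tracer peptide lacking Bcl-B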
Settings: GST-Bcl-B / FITC-TR3 peptide fluorescence polarization; stronger effect = higher value; compound at 3.75 mg/L

Chain of UniProt Q9HD36 (Q9HD36 whole entry, looked up): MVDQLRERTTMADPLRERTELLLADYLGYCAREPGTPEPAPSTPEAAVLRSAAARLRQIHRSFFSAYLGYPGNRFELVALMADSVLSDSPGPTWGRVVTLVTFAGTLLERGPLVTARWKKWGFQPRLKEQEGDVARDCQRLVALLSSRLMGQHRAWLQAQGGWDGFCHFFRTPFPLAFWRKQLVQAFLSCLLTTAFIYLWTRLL

| Compound | displacement |
| --- | --- |
| COc1ccc(NCc2nc3ccccc3n2Cc2ccccc2)cc1 | 9.3% |
| O=C(c1ccncc1)N1CCN(C(=O)c2cccc(F)c2)CC1 | 3.8% |
| CCOC(=O)c1ccc(NC(=O)CC(C)=O)cc1 | -3.8% |
| COc1cc(-c2nc3sc(C)c(C)c3c(=O)[nH]2)ccc1C | -14.9% |
| CC(C)c1ccc(C2CC(=O)Nc3c2ccc2ccccc32)cc1 (centres undefined) | -5.1% |
| CCOc1cc(/C=N\NC(=O)c2cnccn2)ccc1O | -6.7% |
| COc1ccc(-n2sc3c(c2=S)-c2ccc(OC)cc2NC3(C)C)cc1 | 16.4% |
| Cc1ccc(C(=O)Oc2ccc(NS(=O)(=O)c3cccc([N+](=O)[O-])c3)cc2)cc1 | -0.9% |
| CCOC(=O)c1c(N)sc(C(=O)Nc2ccccc2F)c1C | 12.7% |
| COc1ccc(OCC(=O)Nc2sc3c(c2C(N)=O)CCCC3)cc1 | 11.4% |
| COc1cccc(/C=C2\SC(=S)N(NC(=O)c3ccccc3)C2=O)c1 | -0.8% |
| CCOc1cc(OCC)cc(C(=O)Nc2ccc(OC(F)(F)F)cc2)c1 | 2.5% |
| CCCNS(=O)(=O)c1ccccc1[N+](=O)[O-] | 18.9% |
| O=C1/C(=C/c2ccc([N+](=O)[O-])o2)SC(=S)N1Cc1ccccc1 | 11.6% |
| Cc1cc(NC(=O)CCN2C(=O)/C(=C/c3ccc(F)cc3)SC2=S)no1 | 19% |
| C=CCN1C(=O)/C(=C\c2ccc(OCC)cc2)C(=O)NC1=S | -30% |
| O=c1c2ccccc2nc(SCc2ccc(Br)cc2)n1-c1ccccc1 | -14.3% |
| O=C(Nc1c(C(=O)N2CCC(Cc3ccccc3)CC2)cnn1-c1ccccc1)c1ccc(Br)cc1 | -6.5% |
| CCCCOc1ccc(/C=C2/C=C(c3ccccc3)OC2=O)cc1 | 5.7% |
| O=[N+]([O-])c1ccc2nc(Sc3nc4ccccc4[nH]3)sc2c1 | -11.3% |
| CCOc1ccc(C(=O)Nc2ccc(NC(=O)c3ccccc3Cl)cc2)cc1Br | -3.3% |
| O=C(Nc1ccccc1Cl)N1CCN(c2ccccn2)CC1 | 6.2% |

| Compound | displacement |
| --- | --- |
| N#Cc1c(/N=C/c2ccc(O)cc2)sc2c1CCCC2 | 42% |
| O=C1N=c2ccccc2=C1c1sc(=S)n(NC(=O)c2ccccc2)c1O | 10.5% |
| COCCOC(=O)c1c(C)oc2ccc(OC(=O)N3CCOCC3)cc12 | 12.6% |
| CN(C)c1cccc(C(=O)Nc2cc(Cl)ccc2Cl)c1 | -13.6% |
| O=C1c2ccccc2C(=O)C1C1=CC(c2ccccc2)C(c2ccccc2)N=N1 (centres undefined) | -10% |
| CC(C)(C)c1ccc(Oc2coc3cc(O)ccc3c2=O)cc1 | 4.5% |
| C/C(=C1\SC(=S)NC1=O)c1cccc([N+](=O)[O-])c1 | 12.7% |
| COc1ccc(N2C(=O)NC(=O)/C(=C/c3ccc(-c4ccc(C(=O)O)cc4)o3)C2=O)cc1 | -10.9% |
| CCOCCOC(=O)c1ccc(NC(=O)COc2ccc(Br)cc2)cc1 | -2.5% |
| CCOc1ccc(C(=O)Nc2cccc(-c3nc4ccccc4s3)c2)cc1 | 4.1% |
| COc1cc(OC)c(OC)cc1CN1CCN(Cc2cc(OC)c(OC)cc2Br)CC1 | 1.2% |
| CSc1ccccc1C(=O)O/N=C(\c1ccncc1)c1ccc([N+](=O)[O-])cc1 | -2.5% |
| CC(=O)COc1ccc2c(C)cc(=O)oc2c1 | 23.3% |
| COc1ccccc1CC(=O)NCc1ccco1 | 10.3% |
| O=C(Nc1ccc(S(=O)(=O)Nc2nccs2)cc1)c1cc(-c2ccc(Br)cc2)nc2ccccc12 | -5.1% |
| C#CCn1cc(/C=C(/C#N)C(=O)Nc2ccc(OC)cc2)c2ccccc21 | -10.8% |
| COCCNC(=O)CN(c1ccc(OC)cc1)S(C)(=O)=O | 4.5% |
| Cc1cc(OCC(=O)Nc2c(C(C)C)cccc2C(C)C)cc(C)c1Cl | 12.8% |
| Cc1nc(SCC(=O)OCN2C(=O)c3ccccc3C2=O)n[nH]1 | 13.6% |
| CC(C)(C)c1ccc(C2/C(=C(\O)c3ccc(F)cc3)C(=O)C(=O)N2c2nncs2)cc1 (centres undefined) | 11.3% |
| Cc1cc(/C=N/NC(N)=O)c(C)n1-c1cccc(Cl)c1 | -6.3% |
| CC(=O)C(C(C)=O)C1c2ccccc2Oc2ccc(Cl)cc21 (centres undefined) | 9.1% |

| Compound | displacement |
| --- | --- |
| COc1cccc(C2(c3cccc(OC)c3)CC2C(=O)Nc2cccc3ccccc23)c1 (centres undefined) | 19.4% |
| COc1cc(C2Nc3ccc(C(=O)c4ccccc4)cc3NC3=C2C(=O)CCC3)ccc1O (centres undefined) | -3.1% |
| Cc1nc(SCc2ccc([N+](=O)[O-])cc2)nc2ccccc12 | 0.4% |
| CN1CCN(C(=O)/C(=C/c2cccc([N+](=O)[O-])c2)NC(=O)c2cccs2)CC1 | 4.1% |
| COc1ccc(C(=O)Nc2cc3nn(-c4ccc(C)cc4)nc3cc2C)cc1 | -7.9% |
| Cc1ccc(N2C(=O)CC(N3CCN(C)CC3)C2=O)cc1 (centres undefined) | 3.6% |
| CCOC(=O)c1sc(NC(=O)COc2ccccc2C)c(C(=O)OCC)c1C | -10.4% |
| O=C(O)c1ccc(NC(=O)c2ccc(Cl)cc2)cc1 | -3.6% |
| COc1ccc(CCNC(=O)c2cccc(Br)c2)cc1OC | -11.8% |
| CC1(C)Cc2c(c(-c3ccccc3)[nH]c(=O)c2C#N)CO1 | -2.3% |
| COC(=O)c1cc(Nc2nc3ccccc3nc2NS(=O)(=O)c2ccccc2)ccc1Cl | 158% |
| Cc1ccccc1/C=C1\SC(=NCc2ccccc2)N(Cc2ccccc2)C1=O | 15.8% |
| CC(=O)Nc1ccc(NC(=O)c2ccc(CN3CCOCC3)cc2)cc1 | -22.6% |
| CC(=O)Nc1ccc(NC(=O)N2CCOCC2)cc1 | 14.1% |
| CCc1cc(=O)oc2cc(OCC(=O)C(C)(C)C)ccc12 | 13.1% |
| COc1ccc(OC)c(NC(=S)NC(NC(C)=O)C(Cl)(Cl)Cl)c1 (centres undefined) | -6.3% |
| COC(=O)C1C(c2ccccc2)=NN(c2ccccc2)C1C(=O)OC (centres undefined) | 16.9% |
| Cc1ccc(C(=O)Nc2cccc(C(=O)O)c2)cc1S(=O)(=O)N1CCOCC1 | 1% |
| COc1ccc(/C=C2/SC(=O)N(c3ccccc3)C2=O)c(OC)c1 | 5.9% |
| C=CCOC(=O)C1=C(C)NC(C)=C(C(=O)OCC=C)C1c1cccs1 | 7.8% |
| COC(=O)C1=C(C)NC(=S)NC1c1cccc(Cl)c1 (centres undefined) | -15% |
| CC(=O)Nc1ccc(S(=O)(=O)Nc2cccc(-c3nc4ccccc4o3)c2)cc1 | -5.1% |

| Compound | displacement |
| --- | --- |
| Cn1c(=O)c2[nH]c(N/N=C(/C#N)C(N)=O)nc2n(C)c1=O | 7.6% |
| O=C(Nc1ccc2oc(-c3ccccc3)nc2c1)c1ccc(Br)o1 | -2.5% |
| O=c1c2cc([N+](=O)[O-])ccc2[nH]c2c1[nH]c1ccccc12 | -9.8% |
| COc1ccc(N/C=C(\C#N)C(N)=O)cc1 | 9% |
| COc1ccc2c(c1OC)C(=O)OC2CC(=O)c1cc(Cl)ccc1O (centres undefined) | -6.9% |
| CC(NC(=O)CSc1ccccn1)c1ccccc1 (centres undefined) | -10.3% |
| COc1ccccc1C(=O)N1CCN(Cc2ccc3ccccc3c2)CC1 | 9.7% |
| Cc1ccc(N2C(=O)/C(=C/c3ccc(O)cc3)C(=O)NC2=S)cc1 | 10.6% |
| Cc1ccc(S(=O)(=O)/N=C2\C=CC(=O)C=C2Cl)cc1 | 47.3% |
| CCC(=NCCc1ccccc1)C1=C(O)CCC1=O | 1.4% |
| O=C(c1ccc(Br)cc1)N1CCC(c2ccccc2)C1 (centres undefined) | -5% |
| COC(=O)c1cc(-c2ccc(/C=N/n3cnnc3)o2)ccc1Cl | -15.3% |
| CCc1cccc(NC(=O)c2cnccn2)c1 | -3.2% |
| O=C(CCCO)c1ccc2c(c1)OCCO2 | 7.8% |
| COc1ccc(C2C(C(C)=O)=C(O)C(=O)N2c2nc3ccccc3s2)cc1OC (centres undefined) | -10.4% |
| COC(=O)C1=C(C)N(c2ccc(F)cc2)C(=O)/C1=C\c1ccc([N+](=O)[O-])cc1 | -7.3% |
| Cc1ccc(-c2cc(C(=O)N/N=C/c3ccc(Cl)cc3)[nH]n2)cc1 | -14.2% |
| Cc1cccc(N2C(=O)CC(Sc3nc4ccccc4s3)C2=O)c1 (centres undefined) | 3.6% |
| COc1cc(C2CC(C(F)(F)F)n3ncc(C(=O)N4CCN(Cc5ccccc5)CC4)c3N2)cc(OC)c1OC (centres undefined) | 10.5% |
| O=C(O)c1ccccc1Nc1nc2nc3ccccc3c(=O)n2cc1Br | -4.6% |
| Cc1ccc(-c2oc3ccccc3c(=O)c2O)cc1 | -5.6% |
| COc1ccc(/C(N)=N/OC(=O)c2ccc(C)c([N+](=O)[O-])c2)cc1 | -1.8% |

| Compound | displacement |
| --- | --- |
| O=C(Nc1ccc(N2CCOCC2)cc1)c1cc2ccccc2o1 | 10.3% |
| CCCCCc1ccc(-c2ccc(OC(F)F)cc2)nc1 | -0.8% |
| CC(=O)C(C)Oc1ccc2c3c(c(=O)oc2c1)CCCC3 (centres undefined) | -1.9% |
| CC1=CC(C)C2(CO)COC(c3ccccc3)C1C2C (centres undefined) | 6.7% |
| CCCN1C(=O)/C(=C/c2nc3ccccc3c(=O)n2-c2ccccc2[N+](=O)[O-])c2ccccc21 | 1.7% |
| COc1ccc(CC(=O)Nc2ccc(NC(=O)c3ccc(Cl)cc3Cl)cc2)cc1OC | -1.6% |
| O=C(O)CCCCCN1C(=O)/C(=C/c2cccc(F)c2)SC1=S | -14.1% |
| COc1ccc(OC)c(S(=O)(=O)n2cnc(C)c2)c1 | 1.4% |
| COc1ccc2c(c1OC)C(=O)OC2Nc1cccc(C)n1 (centres undefined) | -23.2% |
| COc1ccc(S(=O)(=O)Nc2ccccc2C(N)=O)cc1Br | 14.1% |
| Cc1cc(C)c2oc(-c3ccc(NC(=O)/C=C/c4cccc([N+](=O)[O-])c4)cc3)nc2c1 | 1.5% |
| O=[N+]([O-])c1ccc2nc(SCc3c[nH]c4ccccc34)sc2c1 | -4.8% |
| Cc1ccc(-c2nc3cc(NC(=O)COc4ccccc4[N+](=O)[O-])ccc3o2)cc1 | -5.1% |
| Cc1oc(-c2ccccc2)cc1C(=O)NC(Cc1ccccc1)C(=O)O (centres undefined) | 2.7% |
| COc1ccc(N2C(=O)NC(=O)/C(=C\c3cc(C)n(-c4cccc([N+](=O)[O-])c4)c3C)C2=O)cc1 | 32.8% |
| CN(C)c1cccc(NS(=O)(=O)c2ccccc2)c1 | 9.1% |
| O=C(/C=C/c1ccccc1)NNC(=O)c1cccnc1 | -3.4% |
| C=COCCNC(=O)C(=O)Nc1ccccc1CC | 3.1% |
| COc1cc(C=NN2CCN(c3ccccn3)CC2)cc(OC)c1OC(C)=O | -1.3% |
| CC(=O)CCc1c(C)[nH]c2ccc(Br)cc2c1=S | 0% |
| N#C/C(=C\c1ccc(-c2ccc([N+](=O)[O-])cc2Br)o1)C(N)=O | 7.3% |
